From article PMC9911399, “Two distinct binding modes provide the RNA-binding protein RbFox with extraordinary sequence specificity” come the findings set out here.

Residue numbers refer to the chain shown, from its start. The list shows a part of the results.

To fix the notation:
B1: AAAAGAC (DNA:RNA)
RNA: GGGAGACCGGAAUUCAGAUUGUCCAAAAGACUUAAAUCCCGUCGUAGCCACCA
DNA 1: CAATCTGAATTCCGGTCTCCC
DNA 2: TGGTGGCTACGACGGGATT
B2: CAUUCGA (DNA:RNA)
RNA: B1 RNA with A25C, A27U, A28U, G29C, A30G, C31A
DNA 1: CAATCTGAATTCCGGTCTCCC
DNA 2: TGGTGGCTACGACGGGATT
B3: AGCAGGU (DNA:RNA)
RNA: B1 RNA with A26G, A27C, A30G, C31U
DNA 1: CAATCTGAATTCCGGTCTCCC
DNA 2: TGGTGGCTACGACGGGATT
B4: GUUUUAG (DNA:RNA)
RNA: B1 RNA with A25G, A26U, A27U, A28U, G29U, C31G
DNA 1: CAATCTGAATTCCGGTCTCCC
DNA 2: TGGTGGCTACGACGGGATT
B5: UCAAGCG (DNA:RNA)
RNA: B1 RNA with A25U, A26C, A30C, C31G
DNA 1: CAATCTGAATTCCGGTCTCCC
DNA 2: TGGTGGCTACGACGGGATT
B6: GUUUAAA (DNA:RNA)
RNA: B1 RNA with A25G, A26U, A27U, A28U, G29A, C31A
DNA 1: CAATCTGAATTCCGGTCTCCC
DNA 2: TGGTGGCTACGACGGGATT
B7: GUCCACA (DNA:RNA)
RNA: GGGAGACCGGAAUUCAGAUUGUCCGUCCACAUUAAAUCCCGUCGUAGCCACCA
DNA 1: CAATCTGAATTCCGGTCTCCC
DNA 2: TGGTGGCTACGACGGGATT
B8: UACAUUA (DNA:RNA)
RNA: B1 RNA with A25U, A27C, G29U, A30U, C31A
DNA 1: CAATCTGAATTCCGGTCTCCC
DNA 2: TGGTGGCTACGACGGGATT
B9: GCCUUGG (DNA:RNA)
RNA: B7 RNA with U26C, C28U, A29U, C30G, A31G
DNA 1: CAATCTGAATTCCGGTCTCCC
DNA 2: TGGTGGCTACGACGGGATT
B10: GAAUCCU (DNA:RNA)
RNA: B1 RNA with A25G, A28U, G29C, A30C, C31U
DNA 1: CAATCTGAATTCCGGTCTCCC
DNA 2: TGGTGGCTACGACGGGATT
B11: AGUAGGG (DNA:RNA)
RNA: B1 RNA with A26G, A27U, A30G, C31G
DNA 1: CAATCTGAATTCCGGTCTCCC
DNA 2: TGGTGGCTACGACGGGATT
B12: ACACACC (DNA:RNA)
RNA: B1 RNA with A26C, A28C, G29A, A30C
DNA 1: CAATCTGAATTCCGGTCTCCC
DNA 2: TGGTGGCTACGACGGGATT
B13: GGACAUU (DNA:RNA)
RNA: B7 RNA with U26G, C27A, C30U, A31U
DNA 1: CAATCTGAATTCCGGTCTCCC
DNA 2: TGGTGGCTACGACGGGATT
B14: UACAUCU (DNA:RNA)
RNA: B1 RNA with A25U, A27C, G29U, A30C, C31U
DNA 1: CAATCTGAATTCCGGTCTCCC
DNA 2: TGGTGGCTACGACGGGATT
B15: GGCGGGU (DNA:RNA)
RNA: B7 RNA with U26G, C28G, A29G, C30G, A31U
DNA 1: CAATCTGAATTCCGGTCTCCC
DNA 2: TGGTGGCTACGACGGGATT
B16: CCCCGAG (DNA:RNA)
RNA: B1 RNA with A25C, A26C, A27C, A28C, C31G
DNA 1: CAATCTGAATTCCGGTCTCCC
DNA 2: TGGTGGCTACGACGGGATT
B17: AAGACCC (DNA:RNA)
RNA: B1 RNA with A27G, G29C, A30C
DNA 1: CAATCTGAATTCCGGTCTCCC
DNA 2: TGGTGGCTACGACGGGATT
B18: AUGGCUG (DNA:RNA)
RNA: B1 RNA with A26U, A27G, A28G, G29C, A30U, C31G
DNA 1: CAATCTGAATTCCGGTCTCCC
DNA 2: TGGTGGCTACGACGGGATT
B19: UUGGCCA (DNA:RNA)
RNA: B7 RNA with G25U, C27G, C28G, A29C
DNA 1: CAATCTGAATTCCGGTCTCCC
DNA 2: TGGTGGCTACGACGGGATT
B20: CAAUGCA (DNA:RNA)
RNA: B1 RNA with A25C, A28U, A30C, C31A
DNA 1: CAATCTGAATTCCGGTCTCCC
DNA 2: TGGTGGCTACGACGGGATT
B21: GUUUUUC (DNA:RNA)
RNA: B7 RNA with C27U, C28U, A29U, C30U, A31C
DNA 1: CAATCTGAATTCCGGTCTCCC
DNA 2: TGGTGGCTACGACGGGATT
B22: GGCCUCA (DNA:RNA)
RNA: B7 RNA with U26G, A29U
DNA 1: CAATCTGAATTCCGGTCTCCC
DNA 2: TGGTGGCTACGACGGGATT
B23: GAUAGGC (DNA:RNA)
RNA: B1 RNA with A25G, A27U, A30G
DNA 1: CAATCTGAATTCCGGTCTCCC
DNA 2: TGGTGGCTACGACGGGATT
B24: CUUUUGA (DNA:RNA)
RNA: B7 RNA with G25C, C27U, C28U, A29U, C30G
DNA 1: CAATCTGAATTCCGGTCTCCC
DNA 2: TGGTGGCTACGACGGGATT
B25: AACUGGC (DNA:RNA)
RNA: B1 RNA with A27C, A28U, A30G
DNA 1: CAATCTGAATTCCGGTCTCCC
DNA 2: TGGTGGCTACGACGGGATT
B26: ACGUCUG (DNA:RNA)
RNA: B1 RNA with A26C, A27G, A28U, G29C, A30U, C31G
DNA 1: CAATCTGAATTCCGGTCTCCC
DNA 2: TGGTGGCTACGACGGGATT
B27: CGUAGGA (DNA:RNA)
RNA: B1 RNA with A25C, A26G, A27U, A30G, C31A
DNA 1: CAATCTGAATTCCGGTCTCCC
DNA 2: TGGTGGCTACGACGGGATT
B28: AGCACCG (DNA:RNA)
RNA: B1 RNA with A26G, A27C, G29C, A30C, C31G
DNA 1: CAATCTGAATTCCGGTCTCCC
DNA 2: TGGTGGCTACGACGGGATT
B29: AAUUCGA (DNA:RNA)
RNA: B1 RNA with A27U, A28U, G29C, A30G, C31A
DNA 1: CAATCTGAATTCCGGTCTCCC
DNA 2: TGGTGGCTACGACGGGATT
B30: CUAAUUG (DNA:RNA)
RNA: B1 RNA with A25C, A26U, G29U, A30U, C31G
DNA 1: CAATCTGAATTCCGGTCTCCC
DNA 2: TGGTGGCTACGACGGGATT
B31: UCGAAGU (DNA:RNA)
RNA: B1 RNA with A25U, A26C, A27G, G29A, A30G, C31U
DNA 1: CAATCTGAATTCCGGTCTCCC
DNA 2: TGGTGGCTACGACGGGATT

The test concerns the target T1, RBFOX1 RRM (Homo sapiens, UniProt Q9NWB1 109-208).
T1 sequence: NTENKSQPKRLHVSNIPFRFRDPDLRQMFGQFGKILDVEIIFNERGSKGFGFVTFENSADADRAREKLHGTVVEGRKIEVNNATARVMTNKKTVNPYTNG
Kind of test: EMSA; HiTS-Eq, 1 nM pool, 10 min; buffer printed only for the single-RNA assays: 10 mM Tris pH 7.5, 150 mM NaCl, 3.4 mM EDTA, 0.001% NP-40, 30 C. Conditions: tags: His6 N-terminal (pET28a); label: 5' 32P. The method, boiled down: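 Purified wild-type or mutant RbFox RRM at increasing concentrations was equilibrated with 1 nM of 5′-radiolabelled RNA carrying 7 randomized nucleotides for 10 min in 50 µL. Unbound RNA was separated by 8% native PAGE and sequenced. Relative association constants came from read-count changes of each RNA species compared with the control reaction, normalised to the cognate motif.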
For orientation: Mobility shift assays separate free from complexed probe on a gel.
On to B1, for which the binding signal is 0.00253 KA relative to UGCAUGU. In the case of B2 it was 0.00425 KA relative to UGCAUGU.

Turning to B3, the binding signal was 0.00926 KA relative to UGCAUGU. To B4 belongs 0.0145 KA relative to UGCAUGU. To B5 belongs 0.00798 KA relative to UGCAUGU. In the case of B6 it was 0.00617 KA relative to UGCAUGU; in that of B7, 0.00443 KA relative to UGCAUGU. Turning to B8, the binding signal is 0.00486 KA relative to UGCAUGU. In the case of B9 it was 0.0242 KA relative to UGCAUGU; in that of B10, 0.00613 KA relative to UGCAUGU; in that of B11, 0.00647 KA relative to UGCAUGU. Take B12: the binding signal is 0.000307 KA relative to UGCAUGU. Consider B13, for which the binding signal was 0.00636 KA relative to UGCAUGU.

Consider B14, for which the binding signal was 0.0022 KA relative to UGCAUGU. In the case of B15 it was 0.0234 KA relative to UGCAUGU. In the case of B16 it was 0.00695 KA relative to UGCAUGU; in that of B17, 0.00024 KA relative to UGCAUGU. On to B18, for which the binding signal is 0.0204 KA relative to UGCAUGU. To B19 belongs 0.0217 KA relative to UGCAUGU; to B20, 0.0123 KA relative to UGCAUGU.

Consider B21, for which the binding signal was 0.0237 KA relative to UGCAUGU. In the case of B22 it was 0.0114 KA relative to UGCAUGU; in that of B23, 0.011 KA relative to UGCAUGU. As for B24, the binding signal is 0.0111 KA relative to UGCAUGU. To B25 belongs 0.00787 KA relative to UGCAUGU; to B26, 0.0136 KA relative to UGCAUGU. In the case of B27 it was 0.00437 KA relative to UGCAUGU. To B28 belongs 0.00835 KA relative to UGCAUGU; to B29, 0.00992 KA relative to UGCAUGU.

For the molecule B30, the binding signal is 0.013 KA relative to UGCAUGU.

For B31, the binding signal was 0.00902 KA relative to UGCAUGU.
